Measurements published in PubChem BioAssay AID1346428 (National Center for Advancing Translational Sciences (NCATS), 2018).
“And” between values parts separate entries of the source, which are not always exact repeats. Equal values may be shown once. The campaign covered roughly 48,000 compounds. About 1,200 (2.5%) were called active. Roughly 2% stayed inconclusive and do not appear here.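 How the source made its calls: active means activation of at least 60% and not above a set upper limit (about 1 call in 100 departs from these limits); inconclusive means activation of 40% to 60%, or above that upper limit; inactive means activation under 40%.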 Some of the results follow.

Target: Probable G-protein coupled receptor 32 (Homo sapiens) (UniProt O75388)
Assay: qHTS for Agonists of Human Resolvin D1 Receptor DRV1; further: 0% is about no effect
Conditions: CHO-K1 GPR32 beta-arrestin PathHunter luminescence, 90 min; at 76.9 µM; active compounds read high; zero percent set by DMSO-only wells
Summary of the method: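 Readings come from a cell-based beta-arrestin complementation format: CHO-K1 GPR32 stable cells (2,500/well) treated 90 min with compounds, then beta-Gal substrate added for 1 h before chemiluminescence imaging.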

Chain of UniProt O75388 (O75388 whole entry, looked up): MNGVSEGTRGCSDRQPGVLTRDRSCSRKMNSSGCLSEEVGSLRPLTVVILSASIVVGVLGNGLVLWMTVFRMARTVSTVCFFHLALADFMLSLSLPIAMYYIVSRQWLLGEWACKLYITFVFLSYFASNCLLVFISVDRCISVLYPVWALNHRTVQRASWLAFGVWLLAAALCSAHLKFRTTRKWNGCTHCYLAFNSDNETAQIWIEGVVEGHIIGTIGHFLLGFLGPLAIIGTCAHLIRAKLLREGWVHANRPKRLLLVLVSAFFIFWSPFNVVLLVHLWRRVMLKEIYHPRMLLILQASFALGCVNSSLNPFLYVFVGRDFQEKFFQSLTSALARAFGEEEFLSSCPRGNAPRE

activation, inactive:
N[C@@H](CCCC(=O)O)C(=O)O -4.95%
CN(C)CCn1nnnc1SCC1=C(C(=O)O)N2C(=O)[C@@H](NC(=O)Cc3csc(N)n3)[C@H]2SC1 -3.99%
CCOc1ccccc1NC(=O)C1CCN(S(=O)(=O)Cc2ccccc2)CC1 23.9%
COc1cc(OC)c(C2C=C(c3ccc(C)cc3)Nc3c(C(=O)Nc4ccccc4)cnn32)cc1OC (stereo not drawn) -24.9%
Cc1cc(O)c(C(c2ccccc2Cl)N2CCCCC2)c(=O)n1Cc1ccco1 (stereo not drawn) -14.2%
Cc1ccc(C(C)C)c(OCC(=O)Nc2c(C(=O)c3ccc(F)cc3)oc3ccccc23)c1 -8.99%
COC(=O)C1=C(C)NC(=O)NC1c1cn(-c2ccccc2)nc1-c1ccc(OC)c(Cl)c1 (stereo not drawn) -21.7%
CCn1cc(C(=O)NCc2ccccc2)c(=O)c2cc(S(=O)(=O)N3CCOCC3)ccc21 -1.43%
Cc1c2cnn(CC(=O)N3CCCCC3)c(=O)c2c(C)n1Cc1ccc(Cl)cc1 12.6%
Cc1ccc(NC(=O)c2ccc3c(=O)n4nc(Nc5ccccc5C)sc4nc3c2)cc1C 30.6%
CCc1ccc(C2N3CC4(C)CN2CC(c2ccccc2)(C3)C4=O)cc1 (stereo not drawn) -6.42%
CCOC(=O)C(C)NC(=O)c1cc2c(=O)[nH]c3ccc(C)cc3c2s1 (stereo not drawn) -10.5%
O=C(NCCc1ccc(Cl)cc1)c1ccc2c(c1)N(Cc1ccc(F)cc1Cl)C(=O)CS2 9%
CC(C)CCCC(C)N (stereo not drawn) -0.708%
Cc1ccc(/C=C/c2onc(C)c2S(=O)(=O)N2CCC(C(=O)NCc3ccc(Cl)cc3)CC2)cc1 -0.268%
CC(NC(=O)c1ccc(N2Cc3ccccc3Oc3ncccc32)s1)c1ccccc1 (stereo not drawn) -21.2%
Cc1c(Cl)cccc1NC(=O)C(=O)NCCc1csc(-c2cccc(F)c2)n1 -12.8%
CCn1c(CN2CCCCC2)nc2cc(NC(=O)COc3ccc([N+](=O)[O-])cc3)ccc21 8.34%
COc1ccc(-c2[nH]c(-c3ccccc3)nc2SCC(=O)Nc2ccc3c(c2)OCO3)cc1 -3.94%
COc1ccc(NC(=O)c2ccc(-c3cccc(Cl)c3C)o2)cc1 -0.0644%
CC(NC(=O)Cc1ccc(NC(=O)N2CCCCc3ccccc32)cc1)c1ccccc1 (stereo not drawn) -16.3%
COc1ccc(-c2nc(CSc3nc4ncccc4[nH]3)c(C)o2)cc1OC -7.6%
COc1ccc(-c2noc(CSc3nnc(-c4ccncc4)n3-c3cccc(C)c3)n2)cc1OC 0.499%
Cc1cc(C)cc(NC(=O)NCC2CCN(Cc3cc(C)ccc3C)CC2)c1 -1.17%
CC(=O)Nc1ccc(-c2nnc3n(CC(C)C)c(=O)c4ccccc4n23)cc1 20.9%
COc1ccccc1NC(=O)Cn1c(SCC(=O)NCc2ccccc2)nc2ccccc21 -3.87%
Cc1ccc(-c2cc(-c3coc4ccccc4c3=O)c3c(n2)-c2cc(Cl)ccc2OC3)cc1 0.451%
CCc1ccc(OCC2c3cc(OC)c(OC)cc3CCN2C(=O)Cc2ccc(OC)c(OC)c2)cc1 (stereo not drawn) -35.1%
COc1cc2c(cc1NC(=O)C(C)Oc1ccc(Cl)cc1Cl)oc1ccccc12 (stereo not drawn) -0.319%
COc1ccc(NC(=O)c2oc3ccc4c(c3c2C)C(=O)CC(C)(C)O4)cc1OC -3.27%
Cc1ccc(CCNC(=O)CCCn2nc(C)c3c(C)n(-c4ccc(C)cc4)nc3c2=O)cc1 -10.8%
Cc1ccc(OCC(=O)OCc2cc(=O)n3nc(C4CCCCC4)sc3n2)cc1 -9.26%
CCN(c1ncnc2c1c(-c1ccccc1)cn2-c1ccccc1)C1CCCCC1 -24.9%
Cc1cc(N2CCN(C)CC2)nc2ccc(NC(=O)Nc3ccccc3Cl)cc12 21.7%
CSCCC(NC(=O)C1CCCCC1)C(=O)Nc1ccc(F)c(Cl)c1 (stereo not drawn) -17.3%
CCNc1c(NC(=O)c2ccccc2OCC)c(=O)oc2ccccc12 1.71%
COc1ccc(OC)c(CCNC(=O)c2sc3nc4n(c(=O)c3c2C)CCCC4)c1 -6.25%
CCOc1ccccc1NS(=O)(=O)c1c(C(=O)OC)sc2cccc(F)c12 -15.1%
O=c1[nH]c2cc(C(F)(F)F)ccc2n1-c1cc(C(F)(F)F)ccc1O -1.15%
COc1ccc(N(C(=O)c2ccccc2C)S(=O)(=O)c2ccc3c(c2)n(C)c(=O)n3C)cc1 1.87%
Cc1ccc(N2C(=O)[C@@H]3CSC(c4ccc(C(F)(F)F)cc4)N3C2=O)cc1 (stereo partly drawn) 15.5%
COc1cccc(-c2nc(SC(C(C)=O)C(=O)N(C)C)c3c(=O)n(C)c(=O)n(C)c3n2)c1 (stereo not drawn) -10.1%
CCOC(=O)C1=C(CNCc2ccccc2)NC(=O)NC1c1ccc(C)cc1 (stereo not drawn) -8.63%
Cc1ccc(S(=O)(=O)N2CCCc3cc(NC(=O)c4ccc(C(F)(F)F)cc4)ccc32)cc1 -5.36%
COc1ccc(-n2c(=O)c3c(C)c(C)sc3n(Cc3ccc(F)cc3)c2=O)c(OC)c1 -12.2%
CC1(c2ccccc2)OC(C(=O)O)=CC1=O (stereo not drawn) -5.35%
CN(C(=O)Cn1c(=O)n(Cc2ccc(C(=O)NCc3ccc4c(c3)OCO4)cc2)c(=O)c2ccccc21)c1ccccc1 -0.176%
O=C(Cn1cc(S(=O)(=O)Cc2cccc(Cl)c2)c2ccccc21)Nc1ccc(F)c(Cl)c1 21%
Cn1ccnc1 -9.85%
CCCCOc1ccc(Cn2c(=O)oc3ccccc32)cc1 26%
Cc1cccc(C)c1NC(=O)CN(CC(=O)O)CC(=O)O -23.2%
COc1ccc(CNC(=O)CCc2nc3cccnc3n2Cc2ccc(OC)cc2)cc1 -4.4%
Cc1ccccc1Cc1c(C)nc2c(-c3ccccc3)c(C)[nH]n2c1=O -51.5%
Cc1ccc(NC(=O)Cn2c(=O)n(CCc3ccccc3)c(=O)c3sc4ccccc4c32)cc1C 15.2%
CCOc1ccc(OCC(=O)NCCS(=O)(=O)N2CCN(c3ccc(OC)cc3)CC2)cc1 -13.9%
COC(=O)c1ccc(NC(=O)c2nn(C)c3c2COc2ccccc2-3)cc1 -3.3%
COc1ccccc1CNS(=O)(=O)c1cc(-c2cc(C)no2)ccc1C -15.4%
O=C(NCc1cccc(Cl)c1)c1oc(=O)c2ccccc2c1-c1ccccc1 -2.57%
Cc1nn(CCCC(=O)NCCc2ccc(Cl)cc2)c(=O)c2nn(-c3ccccc3)c(C)c12 -1.59%
O=C(NCc1ccccc1F)c1cccc(NC(=O)N2CCSc3ncccc32)c1 1.74%
Cc1ccc(-c2cc(NC(=O)COc3c(C)cc(C)cc3C)on2)cc1 -2.37%
COc1ccc(C2CC(=O)c3cc(-c4nc(-c5cccc([N+](=O)[O-])c5)cs4)c(=O)n(-c4ccccc4C)c3C2)cc1 (stereo not drawn) -0.143%
CCn1c(=O)c(C(=O)Nc2cc(OC)c(OC)c(OC)c2)nc2ccccc21 9.6%
CCN(CC)CCOC(=O)c1ccc(N)cc1 2.9% and -5.44%
CCc1cccc(C)c1NC(=O)C(CC)Sc1nc2ccncc2[nH]1 (stereo not drawn) -2.54%
CCOc1cccc2sc(NC(=O)c3ccc(S(=O)(=O)N4CCc5ccccc54)cc3)nc12 -13.7%
COc1ccc(CN2CCN(c3ncnc4sc5c(c34)CCCC5)CC2)cc1F 4.75%
CSc1ncc(C(=O)NCc2ccccc2Cl)c(C(F)(F)F)n1 -0.121%
Cc1ccc(NC(=O)N2CCc3c(sc4c3CCCC4)C2c2ccccc2)cc1F (stereo not drawn) -9.07%
CCCCc1nn2c(=O)cc(COC(=O)c3ccc(NC(=O)c4cccc(OC)c4)cc3)nc2s1 -0.349%
CCCN1CCN(CC2=C(C(=O)OCC)C(c3cccc(OC)c3OC)NC(=O)N2)CC1 (stereo not drawn) -7.9%
CCOC(=O)CSc1nc2cc3c(cc2c(=O)n1CCCCCC(=O)NCc1ccc2c(c1)OCO2)OCO3 -20.6%
CCCCN(C)C(=O)c1ccc2c(c1)N(Cc1cccc(Cl)c1)C(=O)c1ccccc1S2=O (stereo not drawn) -23.8%
Cc1ccc2c(CC(=O)Nc3ccc(S(=O)(=O)Nc4nc(C)cc(C)n4)cc3)coc2c1 -8.91%
Cc1cc(C)cc(NC(=O)N2CCN(C)c3ncccc32)c1 -15%
Cn1c(=O)cc(OCC(=O)N2CCN(c3ccccc3F)CC2)c2ccccc21 -3.75%
CN(C)CCOC(c1ccccc1)c1ccc(Br)cc1 (stereo not drawn) 15.2%
CCOc1ccc(CNC(=O)CN2C(=O)CSc3ccc(S(=O)(=O)N4CCOCC4)cc32)cc1OC -13.4%
COc1ccc(-c2noc(-c3cc(C(C)C)[nH]n3)n2)cc1 17.3%
CCN1CCc2c(sc(NC(=O)CSc3ccccc3)c2-c2nc3ccccc3s2)C1 -29.8%

activation, active:
COc1ccc(NC(=O)CCCN2C(=O)C(c3ccccc3)Oc3cccnc32)cc1OC (stereo not drawn) 76.2%
O=C(COc1ccccc1)NCCc1csc(-c2ccc(F)cc2)n1 120%
COC(=O)C1=C(C)NC(C)=C(C(=O)OCCCN2CCC(c3ccccc3)(c3ccccc3)CC2)C1c1cccc([N+](=O)[O-])c1 (stereo not drawn) 105%
